Results: PubChem BioAssay AID624417 (National Center for Advancing Translational Sciences (NCATS), 2012)
In all, about 410,000 compounds went through this assay and about 6,400 (1.6%) were called active. Inconclusive results, whose numbers are uncertain, are shown with a selection of clear calls. The call rests on the fitted dose curve; in most records, active means well fitted inhibition curve with a large enough effect; inconclusive means small, poorly fitted or top-dose-only effect; inactive means no such curve, though single readings can be large or run the other way. No potency is given beside an inconclusive call; the fits are too rough.
Further: nearly all actives have a fitted effect of over 55% in size.
Potency means the concentration at half of the fitted maximal effect; tags describe the fitted curve by direction and shape.

What follows are compounds tested against Glucagon-like peptide 1 receptor (Homo sapiens) (UniProt P43220) (assay: qHTS of GLP-1 Receptor Inverse Agonists (Inhibition Mode)). Details: HEK293 GLP-1R CRE-luciferase, luminescence, 24 h, GLP-1R form is constitutively active; series mostly up to 38.3 µM.
Sequence of UniProt P43220 (P43220 whole entry, looked up): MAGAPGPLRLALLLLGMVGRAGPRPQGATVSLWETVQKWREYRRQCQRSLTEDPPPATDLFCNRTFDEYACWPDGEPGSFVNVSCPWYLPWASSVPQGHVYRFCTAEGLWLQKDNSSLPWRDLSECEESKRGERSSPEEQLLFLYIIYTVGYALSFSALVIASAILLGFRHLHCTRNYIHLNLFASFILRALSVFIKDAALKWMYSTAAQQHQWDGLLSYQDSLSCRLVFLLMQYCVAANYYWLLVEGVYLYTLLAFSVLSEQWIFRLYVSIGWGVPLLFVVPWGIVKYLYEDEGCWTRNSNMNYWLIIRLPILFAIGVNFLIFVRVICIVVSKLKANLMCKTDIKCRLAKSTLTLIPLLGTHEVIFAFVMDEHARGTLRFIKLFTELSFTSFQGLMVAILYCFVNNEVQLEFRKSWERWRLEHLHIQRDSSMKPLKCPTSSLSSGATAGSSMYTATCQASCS
Method in brief: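 HEK293 cells stably co-expressing a cAMP-responsive luciferase reporter and constitutively active GLP-1R were seeded, incubated 12 h, then exposed to compounds for 24 h at 37 C. Luminescence was read 12 min after detection reagent; inverse agonists lower signal.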
For `O=C(CSc1ncnc2scc(-c3ccccc3)c12)NCc1ccc2c(c1)OCO2`, the Potency was inconclusive [inhibitor, single point]. `CCOc1ccc(N2CC(c3nc4ccccc4n3CCCOc3ccc(OC)cc3)CC2=O)cc1` (stereo unspecified) was tested, and the Potency was “inactive”. For `O=C(CN1C(=O)NC(CCc2ccccc2)C1=O)Nc1cccc(Br)c1` (stereo unspecified), the Potency was inconclusive [inhibitor, single point]. With `O=C(Nc1nnc(C2=COCCO2)o1)c1ccc(F)cc1` the Potency was inconclusive [inhibitor, single point]. With `O=C(CCNC(=O)c1ccc(Cl)cc1)Nc1cc(C(F)(F)F)ccc1N1CCOCC1` the Potency was inconclusive [inhibitor, partial curve, poor fit]. `O=C(Nc1cccc(C(F)(F)F)c1)c1sc(Cl)nc1C(F)(F)F` was tested, and the Potency was inconclusive [inhibitor, partial curve, poor fit]. With `CN(Cc1ccco1)C(=O)c1c[nH]c2ccc(S(=O)(=O)Nc3ccc4c(c3)OCCO4)cc2c1=O` the Potency was “inactive”. `COc1ccccc1C(=O)C1CCCN(C(=O)CCC(=O)c2ccccc2)C1` (stereo unspecified) was tested, and the Potency was inconclusive [inhibitor, full curve, poor fit]. In the case of `CCOC(=O)c1ccc(NC(=O)C(=O)NCc2ccco2)cc1`, the Potency was “inactive”. With `CCOc1ccc(C2=[N+]([O-])C(C)(C)N(O)C2(C)C)cc1` the Potency was “inactive”. `COc1ccc(-c2cn[nH]c2-c2ccc(OCc3ccc(F)cc3)cc2O)cc1OC` was tested, and the Potency was inconclusive [inhibitor, partial curve, poor fit]. For `CC(C)(C)c1ccc(CN2C3=NCCCN3c3ccccc32)cc1`, the Potency was inconclusive [inhibitor, partial curve]. With `CC(Sc1ncc(S(=O)(=O)c2ccc(C(C)C)cc2)c(N)n1)C(=O)Nc1ccccc1` (stereo unspecified) the Potency was inconclusive [inhibitor, partial curve, poor fit]. `N#Cc1ccc2c(=O)n(-c3ccccc3)sc2c1` was tested, and the Potency was “inactive”. For `CCOC(=O)c1cc(-c2ccc(F)cc2)n(CCC(=O)Nc2ccccc2OC)c1C`, the Potency was active: 10 µM. `CN1OC(COC(=O)c2ccc(Cl)cc2Cl)CC1c1ccccc1` (stereo unspecified) was tested, and the Potency was inconclusive [inhibitor, single point]. With `COc1ccccc1NC(=O)C(C)OC(=O)C(C)SCC(=O)Nc1ccc(C)cc1` (stereo unspecified) the Potency was inconclusive [inhibitor, single point]. `O=S1(=O)C[C@@H](N2CCC(Cc3ccccc3)CC2)[C@H](COCc2ccccc2)N1` was tested, and the Potency was inconclusive [inhibitor, partial curve, poor fit]. In the case of `COc1ccc(C2=CC(=O)CC(c3ccc(F)cc3)C2)cc1` (stereo unspecified), the Potency was inconclusive [inhibitor, single point]. `O=C(c1ccc(C(F)(F)F)cc1)N1CCN(S(=O)(=O)c2ccc3c(c2)OCCCO3)CC1` was tested, and the Potency was inconclusive [inhibitor, single point]. For `CC(=O)C1=C(C)NC(C)=C(C(C)=O)C1c1cn(-c2ccccc2)nc1-c1cccs1`, the Potency was inconclusive [inhibitor, partial curve, poor fit]. With `CC(C)C[C@@H]1CC2=C(C(=O)OC(C)(C)O2)[C@H](c2ccc(Cl)cc2)O1` the Potency was inconclusive [inhibitor, partial curve, poor fit]. `O=[N+]([O-])c1ccc(/C=N/Nc2ccc3ccccc3c2)o1` was tested, and the Potency was inconclusive [inhibitor, full curve, poor fit]. `COc1ccc(Cl)c(OC)c1C(=O)NC(=O)Nc1c(F)cc(F)cc1F` was tested, and the Potency was inconclusive [inhibitor, full curve]. `Cc1ccc(NC(=O)Cn2c(CCC(=O)O)ccc2-c2cccs2)cc1Cl` was tested, and the Potency was inconclusive [inhibitor, single point]. For `CC1=NOC(=O)/C1=C\c1ccc(-c2ccc(Cl)cc2Cl)o1`, the Potency was inconclusive [inhibitor, partial curve, poor fit]. With `Cc1cc(SCC(=O)N(C)CC(=O)Nc2ccc(F)cc2)nc2ccccc12` the Potency was inconclusive [inhibitor, partial curve, poor fit]. For `CC(C)(C)c1ccc(NC(=S)NCCc2ccccn2)cc1`, the Potency was inconclusive [inhibitor, partial curve, poor fit]. In the case of `Cc1nc([N+](=O)[O-])c(Br)n1CC(=O)c1ccc(Cl)cc1`, the Potency was inconclusive [inhibitor, partial curve, poor fit]. With `COc1ccccc1CN1CCN(S(=O)(=O)c2ccccc2)CC1` the Potency was inconclusive [inhibitor, partial curve, poor fit]. In the case of `O=C(CCC(=O)OCC(=O)c1ccc(-c2ccccc2)cc1)Nc1cccc2cccnc12`, the Potency was inconclusive [inhibitor, single point]. `OCC1CCCN(Cc2cn(Cc3ccccc3)nc2-c2cc3ccccc3o2)C1` (stereo unspecified) was tested, and the Potency was inconclusive [inhibitor, single point]. With `COc1cc(NC(=O)c2c(F)c(F)c(OC)c(F)c2F)ccc1NC(=O)c1cccs1` the Potency was inconclusive [inhibitor, single point]. For `CC(C)c1ccccc1NC(=S)NC1CCCCC1`, the Potency was inconclusive [inhibitor, single point]. For `COC(=O)c1cc(C)c(C)cc1NC1OC(CO)C(O)C1O` (stereo unspecified), the Potency was “inactive”. In the case of `Cc1cc2oc(C(=O)N3CCN(Cc4ccccc4)CC3)c(C)c2cc1C`, the Potency was inconclusive [inhibitor, single point]. With `CC(C)CNC(=O)CCCc1c[nH]c2ccccc12` the Potency was “inactive”. For `Cc1ccc2c(CC(=O)N3CCc4ccccc43)coc2c1`, the Potency was inconclusive [inhibitor, full curve]. With `Cc1cc(C(=O)CN2CCCC(C)C2)c(C)n1-c1ccc(F)cc1` (stereo unspecified) the Potency was inconclusive [inhibitor, single point]. For `CC1CCN(C(=O)c2cc3c(ccc4ccccc43)o2)CC1`, the Potency was active: 10 µM. In the case of `CCOc1cc(C2C(C(=O)Nc3ccccc3)=C(C)Nc3ncnn32)cc(Br)c1O` (stereo unspecified), the Potency was “inactive”.
